# Test results as given in PMC4336329 (PLoS ONE, 2015).
# The campaign covered roughly 310,000 compounds. About 14,000 (4.5%) showed an effect of 50% or more. The effect is printed as a negative number. Some of the results follow.
# Molecular target: human ether-à-go-go-related gene (hERG) potassium channel (human, UniProt Q12809)
# Assay: primary screen, population patch clamp on CHO cells stably expressing hERG
# 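Further: peak tail current of the secondary pulse compared with the same well before compound.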
# human ether-à-go-go-related gene (hERG) potassium channel, sequence (Q12809 whole entry, looked up): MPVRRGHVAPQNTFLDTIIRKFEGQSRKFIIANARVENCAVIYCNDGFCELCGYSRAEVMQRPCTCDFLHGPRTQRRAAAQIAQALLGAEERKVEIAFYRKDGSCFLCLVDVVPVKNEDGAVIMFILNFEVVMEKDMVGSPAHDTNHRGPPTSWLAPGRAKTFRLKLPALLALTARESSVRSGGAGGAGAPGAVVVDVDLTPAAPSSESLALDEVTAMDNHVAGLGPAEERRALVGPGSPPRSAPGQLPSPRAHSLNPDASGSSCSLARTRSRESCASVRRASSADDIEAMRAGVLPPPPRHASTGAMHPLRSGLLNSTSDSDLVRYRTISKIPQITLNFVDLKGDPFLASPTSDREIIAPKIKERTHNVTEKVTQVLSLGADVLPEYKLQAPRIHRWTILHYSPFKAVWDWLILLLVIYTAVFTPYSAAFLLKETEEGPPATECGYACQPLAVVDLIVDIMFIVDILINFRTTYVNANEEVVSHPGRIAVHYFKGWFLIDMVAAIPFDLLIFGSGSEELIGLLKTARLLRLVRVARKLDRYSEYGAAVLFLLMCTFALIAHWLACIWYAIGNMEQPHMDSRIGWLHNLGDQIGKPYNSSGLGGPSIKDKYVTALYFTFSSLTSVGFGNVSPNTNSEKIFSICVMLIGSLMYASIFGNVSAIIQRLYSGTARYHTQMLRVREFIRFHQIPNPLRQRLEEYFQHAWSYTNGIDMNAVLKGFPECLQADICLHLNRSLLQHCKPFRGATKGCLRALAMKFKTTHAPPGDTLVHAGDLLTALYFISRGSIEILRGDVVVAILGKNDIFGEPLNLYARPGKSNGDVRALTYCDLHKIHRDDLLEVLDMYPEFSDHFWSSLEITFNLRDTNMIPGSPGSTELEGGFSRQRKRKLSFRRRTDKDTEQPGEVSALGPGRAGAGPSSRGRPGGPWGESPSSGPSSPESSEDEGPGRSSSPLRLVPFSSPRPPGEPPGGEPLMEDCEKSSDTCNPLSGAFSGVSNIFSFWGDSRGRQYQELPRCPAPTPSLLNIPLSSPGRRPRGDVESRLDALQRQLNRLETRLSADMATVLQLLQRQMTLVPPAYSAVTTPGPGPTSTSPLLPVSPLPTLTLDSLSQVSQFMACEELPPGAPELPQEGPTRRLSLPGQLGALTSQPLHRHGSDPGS
row,Compound,"hERG current change (%, negative = inhibition) at 10uM"
1,Cc1ccc(C(O)(c2ccc(C)c(C)c2)C2CN3CCC2CC3)cc1C.Cl (stereo not drawn),-67.6%
2,O=C(CC(Cc1ccccc1)c1ccco1)NCc1ccco1 (stereo not drawn),-3.67%
3,COc1cc(F)ccc1S(=O)(=O)NCc1cccnc1,-2.98%
4,Cc1cccc(Nc2nc(N)c([N+](=O)[O-])c(N3CCC(C)CC3)n2)c1,-15.7%
5,Cc1ccc(NC(=O)c2ccc(N3CCOCC3)c([N+](=O)[O-])c2)cc1S(=O)(=O)N1CCOCC1,-27.9%
6,CC(=O)Nc1ccc(CN2CCN(CC=C(C)C)C(CCO)C2)cc1 (stereo not drawn),8.81%
7,C=CCNC(=O)CSc1nc2sccc2c(=O)n1-c1ccccc1,1.59%
8,O=[N+]([O-])c1ccc(Cl)c(C[n+]2cccc3ccccc32)c1.[Br-],11.5%
9,CCN1/C(=C/C=C/c2sc3ccccc3[n+]2CC)Sc2ccccc21.[I-],-73.8%
10,COc1ccc(C)cc1S(=O)(=O)Nc1cc2c3c(c1)C(C)C(=O)N3CCC2 (stereo not drawn),3.78%
11,Cc1ccc(COC(=O)Cc2coc3cc(O)ccc23)cc1,12.8%
12,CC(Sc1nnc(-c2ccccc2Br)n1-c1cccc(C(F)(F)F)c1)C(N)=O (stereo not drawn),-7.08%
13,COCOc1ccc(-c2cc(=O)c3c(OCOC)cc(OCOC)cc3o2)cc1,-41%
14,COc1ccc(CNCCc2c(C)[nH]c3ccc(OC(F)(F)F)cc23)c(OC)c1.O=C(O)C(=O)O,-51%
15,CS(=O)(=O)N(CC(=O)N1CCN(c2ccccc2)CC1)c1cccc(Br)c1,-19.2%
16,CC1(C)Cc2ccccc2C(=NCC(=O)O)N1,17.6%
17,CCOc1ncccc1C(=O)Nc1ccc(C(=O)Nc2ccc(OC)cc2)cc1,0.719%
18,O=C(Nc1ccccc1OC(=O)c1ccc(Cl)cc1)c1ccc(Cl)cc1,6.58%
19,COC(=O)c1cc(N=C(N)N=C(N)N)cc(C(=O)OC)c1,14.4%
20,CCOC(=O)c1cnc(-n2nc(C)cc2C)nc1Oc1ccc(C#N)cc1,21.3%
21,CN(C)S(=O)(=O)c1ccc(C(=O)Nc2nnc(SCc3cccc4ccccc34)s2)cc1,1.71%
22,COc1ccccc1C(=O)NNC(=O)c1ccc(NC(=O)c2ccccc2)cc1,13.3%

row,Compound,"hERG current change (%, negative = inhibition) at 10uM"
1,O=C(N/N=C/c1cccs1)c1cccc2cc[nH]c12,-6.53%
2,CCN(CC(=O)Nc1cc(Cl)ccc1C)C(=O)C1CCCCC1,3.73%
3,Cc1ccccc1C(=O)NCc1nnc(SCC(=O)N2CCN(c3ccccc3)CC2)n1C,2.55%
4,COc1cccc(NC(=O)COc2ncnc3sc(C)c(C)c23)c1,10.1%
5,Cc1c(Br)c([N+](=O)[O-])nn1CC(=O)Nc1ccc(Cc2ccncc2)cc1,6.16%
6,COc1ccc(-c2noc(N3CCC(C(=O)NCc4ccc(Cl)cc4)CC3)n2)cc1,1.42%
7,O=S(=O)(NCCc1csc(-c2cccnc2)n1)c1ccc(Cl)s1,-41.6%
8,CC(=O)c1ccc(COC(=O)c2ccccc2NC(=O)C(C)C)cc1,-25.6%
9,N/C(=N\OC(=O)c1cccc(Br)c1)c1ccncc1,-21.8%
10,CCC1Oc2ccccc2N(CC(=O)NCCCN2CCOCC2)C1=O (stereo not drawn),-4.71%
11,CC(=O)c1cccc(NC(=O)c2ccc3c(c2)CCN3S(=O)(=O)c2ccccc2)c1,18.4%
12,Cc1ccc(-c2ccnc(=S)[nH]2)cc1,17.8%
13,COc1ccc(N2CCN(C(CNC(=O)C(=O)NCCc3c[nH]c4ccccc34)c3ccco3)CC2)cc1 (stereo not drawn),-3.79%
14,O=C(c1ccc(F)cc1)N1CCOCC1,10.1%
15,CCOc1ccc(Nc2ccc3nonc3c2[N+](=O)[O-])cc1,10.6%
16,O=C(Cc1ccccc1)Nc1nnc(-c2cccc([N+](=O)[O-])c2)s1,5.44%
17,CC1CC(C)CN(C(=O)c2cc(S(=O)(=O)N3CCCCC3)ccc2Cl)C1 (stereo not drawn),-37.7%
18,Oc1cccc(-c2nc3ccc4ccccc4c3c3c2CCC3)c1,9.27%
19,Nc1c2c(nn1-c1ccccc1)CCC2,2.92%
20,Cc1cc(=O)oc(C)c1C(=O)OCC(=O)c1ccccc1,-5.02%
21,Cc1ccc(OCC(=O)NNC(=O)CCC(=O)NCc2ccccc2)cc1,-19.4%
22,CN1C(=O)N(C)c2cccc3cccc1c23,4.32%

row,Compound,"hERG current change (%, negative = inhibition) at 10uM"
1,CC(Cc1c[nH]c2ccccc12)C(=O)N1CCN(c2ccccc2F)CC1 (stereo not drawn),7.75%
2,COc1ccccc1NC(=O)c1nn(C)cc1Br,9.74%
3,Cc1cccc(C)c1OCC(=O)NNC(=O)CCNC(=O)c1ccc(Br)cc1,-3.79%
4,CCOc1ccccc1/C=C\c1nc(O)c([N+](=O)[O-])c(=O)[nH]1,5.91%
5,O=C(COC(=O)CNS(=O)(=O)c1ccc2ccccc2c1)Nc1ccccc1Sc1ccccc1,17.8%
6,Cc1ccc(S(=O)(=O)NCCN(CCNS(=O)(=O)c2ccc(C)cc2)S(C)(=O)=O)cc1,-5.95%
7,O=C(Nc1cccc2c1CCCC2)c1ccc(Br)o1,-21.6%
8,CCCCN(C)C/C(O)=C(\C#N)c1nc(-c2ccccc2)cs1,-5.98%
9,CC(C)Cc1ccc(CN2CCCC(NC(=O)CSc3nncn3C)C2)cc1 (stereo not drawn),-23.7%
10,Nc1ncnc2c1ncn2C1OC(CO)C(O)C1O (stereo not drawn),35.7%
11,COc1ccc(NC(=O)CN(C)C(=O)CNC(=O)c2cccs2)cc1,5.89%
12,COc1ccc(N=C2NN=C(c3ccc4c(c3)OCCO4)CS2)cc1,5.68%
13,Cc1ccc2cc3c(nc2c1)N(c1ccccc1)CC3,2.24%
14,COc1ccc(C2C3=C(CCCC3=O)Nc3c(-c4ccccc4)c(C)nn32)cc1 (stereo not drawn),-14.1%
15,N#CCC(=O)Nc1ccc(C(=O)OCC(=O)C23CC4CC(CC(C4)C2)C3)cc1,12.7%
16,O=C(Cc1cccc2ccccc12)N1CC[C@@]2(O)CCCC[C@H]2C1,12.5%
17,CCOc1ccc(N2C(=O)C3CCCN3C2=O)cc1 (stereo not drawn),10.1%
18,CCOc1ccc(NS(=O)(=O)c2ccc(C(=O)N(CC)CC(=O)NCc3cccs3)cc2)cc1,-6.91%
19,O=S1(=O)Cc2cc3ccccc3cc2C1,11.7%
20,CCOC(=O)C1NN=C(C(=O)c2ccccc2)C1c1ccc(Cl)cc1 (stereo not drawn),-22.4%
21,O=C(NCc1ccccn1)C(=O)NCC(c1ccco1)N1CCOCC1 (stereo not drawn),9.28%
22,CN(C)S(=O)(=O)c1ccc2c(c1)nc(CCC(=O)Nc1ccc3c(c1)OCO3)n2C,-0.928%

row,Compound,"hERG current change (%, negative = inhibition) at 10uM"
1,Cc1c(NC(=O)C23CC4CC(CC(Br)(C4)C2)C3)c(=O)n(-c2ccccc2)n1C,15.4%
2,COCCN(C(=O)CSCc1ccccc1)c1c(N)n(Cc2ccccc2)c(=O)[nH]c1=O,-18.9%
3,O=S(=O)(c1ccc(NCCOCCO)nc1)N1CCCCC1,10%
4,COc1ccccc1CNC(=O)C1CCN(S(=O)(=O)c2ccc(-n3cnnn3)cc2)CC1,-66.9%
5,Cc1ccc(C(=O)Nc2ccc(C)c(S(=O)(=O)Nc3ccccc3Cl)c2)s1,-6.43%
6,COc1ccc(C(=O)Oc2ccc(-c3nnco3)cc2)cc1S(=O)(=O)N1CCOCC1,-5.2%
7,C=C(C)CN1CCN(c2ccc(N3C(=O)CCCC3=O)cc2[N+](=O)[O-])CC1,16.9%
8,CCOC(=O)COc1nc(N(C)C)nc(N(C)C)n1,0.423%
9,COCCNC(C(=O)Nc1ccc(C)cc1[N+](=O)[O-])c1ccccc1 (stereo not drawn),-6.29%
10,Cc1cc(NC(=O)CN2C(=O)NC(C)(c3ccccc3)C2=O)no1 (stereo not drawn),-55.5%
11,O=C(O)c1ccc(NC(=O)c2ccccc2Br)c(NC(=O)c2ccccc2Br)c1,9.34%
12,COCCn1c(SCC(=O)N2CCCc3ccccc32)nnc1-c1ccco1,4.37%
13,CCOc1cc(N2CCOCC2)c(OCC)cc1NC(=O)CSc1ncccn1,-7.47%
14,O=[N+]([O-])c1cc(-c2nnc(C34CC5CC(CC(C5)C3)C4)o2)cc([N+](=O)[O-])c1,-3.46%
15,CCOC(=O)CNC(=O)CNC(=O)c1nn(-c2ccc(OC)c(OC)c2)c(=O)c2ccccc12,28.7%
16,Cc1ccc(-c2csc(N(C)C(=O)c3c(C)nn(-c4ccccc4)c3Cl)n2)cc1,14.9%
17,CCOC(=O)c1ccc(NC(=O)CSc2nc(SC)ns2)cc1,7.04%
18,O=C(COC(=O)c1ccccc1Oc1ccccc1)NC1CC1,3.65%
19,C/C(CC(=O)NCc1ccc(Cl)cc1)=N\NC(=O)Cc1ccccc1,-26.5%
20,O=C(CSc1nnc(NC(=O)C2CCC2)s1)Nc1ccccc1F,10.9%
21,O=C(NCCc1ccccc1)/C(=C/c1ccco1)c1ccccc1,-13.8%
